# Results reported in the supplement of paper PMC5499739.
# Whole data set: some 16,000 sequences, median “Z-score” near -0.37, cut for the highest 2% near 3.2. The list shows a part of the results.
# Test system: RBM10 RRM1-ZnF (GST-tagged construct)
# Assay: RNAcompete 7-mer binding Z-score; higher = stronger binding preference
# Method in brief: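 In 1 ml Hepes pH 7.8 buffer with KCl, NaCl, glycerol, DTT, BSA and glutathione Sepharose beads, GST-tagged RBM10 constructs (20 pmol) were incubated for 30 min at 4°C with 1.5 nmol of a designed pool of 241 399 RNAs up to 41 nt. Four 2-min washes at 4°C followed, and bound RNA was detected by microarray hybridisation. Heptamer motif enrichment was expressed as a one-sided Z-score across probes containing each motif.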
row,Sequence,RNAcompete 7-mer binding Z-score
1,CAGUAAC,-0.23
2,UAUCAAC,-0.639
3,GGGCGUU,1.21
4,UUUGCCC,-0.652
5,AUAGUAU,-0.0155
6,AGCUACA,-0.227
7,CCACCUC,-0.487
8,CAAAAUU,-0.655
9,UGGUCGU,0.342
10,GUGCGGU,1.45
11,UCACUCA,-0.711
12,GCACGAC,0.00729
13,CUUGGGC,0.452
14,GCUGAAA,-0.106
15,GUCACCC,-0.327
16,ACCGAUU,-0.743
17,UAUAUGC,-0.36
18,UGUUUUG,-0.227
19,UUCAAAU,-0.607
20,AUUCUCA,-0.6
21,CUUGCCA,-0.756
22,UUAACAU,-0.487
23,CCAAUGU,-0.464
24,GCACGAG,0.579

row,Sequence,RNAcompete 7-mer binding Z-score
1,AAAGAGU,0.527
2,AGAUUAU,-0.259
3,GCUCAGA,-0.262
4,CGGUACA,0.4
5,GAAAAGA,0.722
6,UUUACUA,-0.746
7,GUCCGCG,0.0333
8,GACGGGC,1.12
9,CCCACGG,-0.0382
10,UACUGCG,-0.279
11,CGAGUGU,0.339
12,AUACUUC,-0.75
13,UACAGCA,-0.474
14,CUUCGGA,-0.444
15,GAUCUAU,-0.574
16,UGAGAAC,-0.0934
17,AGUCAUA,-0.366
18,UCUAGGG,1.34
19,GCGGGCC,0.277
20,GCGUCCA,-0.454
21,CCAGAGU,-0.269
22,UUGUUAC,-0.373
23,AUUGCCG,-0.568
24,CGUAAAA,-0.347

row,Sequence,RNAcompete 7-mer binding Z-score
1,AUUAUAA,-0.34
2,UCGAUUU,-0.604
3,GAGCCCU,-0.594
4,AUCGCCC,-0.772
5,UAGAGUG,1.08
6,GACGGUC,-0.217
7,AGACUGC,-0.854
8,UGAUUAG,0.115
9,CUCUUUU,-0.902
10,AUUACAC,-0.655
11,AGACACG,-0.331
12,UACACGG,0.345
13,AACAUCC,-0.707
14,GAUGAAC,0.29
15,UUCACAA,-0.665
16,CCGCAUA,-0.717
17,GUUGAGU,0.602
18,CGCUAGG,0.491
19,GAACUCG,-0.383
20,UGGCACA,0.257
21,GCUUUUC,-0.837
22,GCCGCUA,-0.591
23,AUACUCA,-0.688
24,AGGUCGC,0.0755

row,Sequence,RNAcompete 7-mer binding Z-score
1,GGAUUGA,1.73
2,CUCCAAU,-0.646
3,GGCCGGC,-0.23
4,GCGAAAA,0.0528
5,CAAGUCC,-0.675
6,GCGGGUG,3.17
7,GACCGCC,-0.652
8,GAGCAUA,0.14
9,AUGUGUC,-0.145
10,UAGCAGU,-0.0967
11,AAACACA,-0.327
12,UCGUCCC,-0.763
13,GUGCCCG,-0.152
14,GCACUAC,-0.0967
15,AUUUGUA,-0.444
16,GCCUGUG,-0.363
17,UCUCGGA,-0.344
18,UGAGGAC,0.959
19,UGCGUUA,-0.175
20,CAACAAC,-0.633
21,GCUAUUU,-0.717
22,UGUUGAG,0.716
23,AACCAAA,-0.636
24,CUCAGUA,-0.74

row,Sequence,RNAcompete 7-mer binding Z-score
1,GCCCACG,-0.389
2,CAAUUAA,-0.633
3,GCUACAC,-0.158
4,GAUUUCG,-0.565
5,AAUACCC,-0.613
6,GUGUGAC,0.543
7,AAUUUUC,-0.863
8,CGUGGCC,-0.35
9,ACCCUAG,-0.678
10,GCUCGAC,-0.467
11,CGGACGA,0.485
12,AUGAACG,0.303
13,UUGGUAA,0.615
14,CCAAGAC,-0.646
15,CGCACGU,-0.552
16,GCUAAAC,-0.36
17,UCCGACA,-0.769
18,GAUAGAU,0.407
19,AGCAAAU,-0.435
20,GCCGGCC,-0.548
21,AAGCGUC,-0.441
22,AGAUAGU,0.0853
23,AUAACGC,-0.691
24,UCGCCCG,-0.441

row,Sequence,RNAcompete 7-mer binding Z-score
1,AGCCUCU,-0.831
2,AAAAAGU,0.043
3,AAUUUUU,-0.743
4,GUCCCAG,-0.301
5,CCUCUGU,-0.769
6,UUCAGAA,-0.555
7,UUAUCCA,-0.668
8,GCUCAAG,-0.386
9,AUGAACC,-0.467
10,GUUUUCG,0.0268
11,CCACUUU,-0.815
12,UAUCGUC,-0.688
13,UGAAUCG,0.0463
14,GUCGUUA,-0.194
15,GGUGGGU,3.78
16,GGGGCUA,1.92
17,UCUCUCC,-0.805
18,CGGUCCU,-0.574
19,CCGAUCU,-0.954
20,GCAUGAC,-0.262
21,CAGGACG,1.06
22,CCGCUGU,-0.707
23,GCUCCAA,-0.409
24,CGCCUAG,-0.565

row,Sequence,RNAcompete 7-mer binding Z-score
1,CAUUCCU,-0.854
2,UGCAAUG,0.0235
3,GUCUUAU,-0.818
4,UAUCUGU,-0.636
5,UCCCUUA,-0.86
6,AUAGCCU,-0.724
7,CACUAUG,-0.357
8,CUGACGU,-0.48
9,AAGAUUG,0.111
10,AGGAUCA,0.352
11,AGACAAU,-0.318
12,GUAGGGU,4.46
13,GGUUUAC,0.264
14,GUAUUAU,-0.0999
15,AAUCGGG,1.73
16,CUUCAGC,-0.763
17,CGCAUCG,-0.412
18,AUACACC,-0.795
19,ACGGAAA,0.927
20,GGUUGCA,0.946
21,AUCGUGG,0.982
22,CUCUCGC,-0.668
23,UGGAGAC,1.72
24,GAUGUGG,3.15

row,Sequence,RNAcompete 7-mer binding Z-score
1,UAGCUCA,-0.581
2,CCUACCG,-0.737
3,GGAGCUA,1.22
4,UAGGCGG,1.58
5,AGCAAUC,-0.435
6,CAUUUGG,-0.292
7,UGGGCGC,1.16
8,UUUGUGA,-0.383
9,ACUAGUU,-0.535
10,CUCACGC,-0.493
11,CUGUAUA,-0.707
12,GAUGUUG,0.93
13,GACAUCG,-0.282
14,AUCAUCC,-0.74
15,UCAGUCC,-0.711
16,AGAACAC,-0.581
17,UUGGAUA,0.755
18,GUGAGAU,0.823
19,CGAUCUC,-0.746
20,CCGGGAC,0.287
21,CUGCAAC,-0.626
22,GAGGCGG,1.93
23,AGGCUAC,-0.24
24,CCGACAU,-0.834

row,Sequence,RNAcompete 7-mer binding Z-score
1,CAGGGGC,1.55
2,UUGUGGA,1.18
3,CGUGCUA,-0.62
4,CAGUGCC,-0.431
5,CCGCCAC,-0.357
6,GGCGCGU,0.488
7,UCGAAAA,-0.269
8,UUAAGUC,-0.694
9,CGAUUUU,-0.912
10,GCCCCAA,-0.516
11,CUCACAC,-0.539
12,AUAUUAG,-0.00246
13,ACUUACG,-0.73
14,CCCGUCA,-0.62
15,GUUUUUG,0.196
16,UGCUGCA,-0.292
17,GUAUAUG,0.28
18,AGUGUAU,0.417
19,CAUCACA,-0.694
20,GAAUGUU,0.108
21,CAUUAGU,-0.464
22,CAUCCUU,-0.867
23,AAAGGAC,2.39
24,UUCCUGU,-0.75

row,Sequence,RNAcompete 7-mer binding Z-score
1,AGUCUCU,-0.613
2,CGUCCUA,-0.824
3,CGGCUCU,-0.639
4,AGUUGGG,2.89
5,UAAGCCU,-0.707
6,GACGGCU,-0.227
7,GGUGCCG,1.01
8,UCUUGCA,-1.02
9,GCAUAUG,0.257
10,UUUAUGC,-0.727
11,AACCGCC,-0.74
12,GGGUUGU,2.38
13,CCAGUUC,-0.717
14,ACGGACC,-0.106
15,UUACCUG,-0.763
16,CCUGGCU,-0.529
17,GUUCGGU,0.0333
18,CACGCUC,-0.578
